Data taken from a collection of fitness landscapes (doi:10.1126/science.1257360).
The other results are listed elsewhere or left out.

B1: PhoQ; a variant is named by its letters at X, in order, P23837 (parent)
chain: MKKLLRLFFPLSLRVRFLLATAAVVLVLSLAYGMVALIGYSVSFDKTTFRLLRGESNLFYTLAKWENNKLHVELPENIDKQSPTMTLIYDENGQLLWAQRDVPWLMKMIQPDWLKSNGFHEIEADVNDTSLLLSGDHSIQQQLQEVREDDDDAEMTHSVAVNVYPATSRMPKLTIVVVDTIPVELKSSYMVWSWFIYVLSANLLLVIPLLWVAAWWSLRPIEALAKEVRELEEHNRELLNPATTRELTSLVRNLNRLLKSERERYDKYRTTLTDLTHSLKTPLXXLQXXLRSLRSEKMSVSDAEPVMLEQISRISQQIGYYLHRASMRGGTLLSRELHPVAPLLDNLTSALNKVYQRKGVNISLDISPEISFVGEQNDFVEVMGNVLDNACKYCLEFVEISARQTDEHLYIVVEDDGPGIPLSKREVIFDRGQRVDTLRPGQGVGLAVAREITEQYEGKIVAGESMLGGARMEVIFGRQHSAPKDE

Variants of: B1
Assay: enrichment ratio after two sorts for PhoP signalling (ratio (wild type AVST 3.29)); higher = more functional
Conditions: with PhoP (E. coli)

Variant | enrichment ratio
YRQD | ≤ 0.25
DYNA | ≤ 0.25
DKFL | ≤ 0.25
NISW | ≤ 0.25
QTRQ | ≤ 0.25
QKTT | ≤ 0.25
LYHF | ≤ 0.25
DIGI | ≤ 0.25
DDSC | ≤ 0.25
PCAI | ≤ 0.25
YDHT | ≤ 0.25
EVGS | ≤ 0.25
IACL | ≤ 0.25
PDYL | ≤ 0.25
EEQF | ≤ 0.25
FWYV | ≤ 0.25
DNKI | ≤ 0.25
VPQK | ≤ 0.25
QDAK | ≤ 0.25
HCRA | ≤ 0.25
GVIG | 2.7
FRSK | ≤ 0.25
TPTQ | ≤ 0.25
MKYI | ≤ 0.25

Variant | enrichment ratio
HFWS | ≤ 0.25
ITIH | ≤ 0.25
IVVI | ≤ 0.25
QGCV | 3.61
VCCA | ≤ 0.25
MLPM | ≤ 0.25
RGMH | ≤ 0.25
EKYC | ≤ 0.25
DLEG | ≤ 0.25
IALA | ≤ 0.25
VNND | ≤ 0.25
EYWI | ≤ 0.25
IGYM | ≤ 0.25
DLWV | ≤ 0.25
SEPA | ≤ 0.25
WNSY | ≤ 0.25
ERCQ | ≤ 0.25
KRCI | ≤ 0.25
IAYT | ≤ 0.25
MVGM | 7.35
ESMA | ≤ 0.25
GFQL | ≤ 0.25
IALD | ≤ 0.25
RMMF | ≤ 0.25

Variant | enrichment ratio
VFLN | ≤ 0.25
NYRS | ≤ 0.25
IEQM | ≤ 0.25
QYIF | ≤ 0.25
VPVR | ≤ 0.25
RKLH | ≤ 0.25
VKDH | ≤ 0.25
DMYD | 1.02
EIMH | ≤ 0.25
NHCG | ≤ 0.25
SIPN | ≤ 0.25
NIME | ≤ 0.25
FSCH | 0.442
TQGT | 0.286
EFDV | ≤ 0.25
IYQT | ≤ 0.25
WQQI | ≤ 0.25
AMQF | ≤ 0.25
HVTG | ≤ 0.25
IWHG | ≤ 0.25
VSHG | ≤ 0.25
LINE | ≤ 0.25
NPGY | ≤ 0.25
ILPK | ≤ 0.25

Variant | enrichment ratio
VRDS | ≤ 0.25
LWDS | ≤ 0.25
SMCT | 11
MFRW | ≤ 0.25
AINR | ≤ 0.25
NDAI | 3.29
NCDK | ≤ 0.25
PVED | ≤ 0.25
QQHT | ≤ 0.25
TPIA | ≤ 0.25
SPQF | ≤ 0.25
ILCR | ≤ 0.25
KGAP | ≤ 0.25
DIMD | ≤ 0.25
AVAE | ≤ 0.25
NVSG | ≤ 0.25
WIIS | ≤ 0.25
MWPL | ≤ 0.25
APHN | ≤ 0.25
YPIQ | ≤ 0.25
VHLC | ≤ 0.25
KRFY | ≤ 0.25
DHYD | ≤ 0.25
MLDA | ≤ 0.25

Variant | enrichment ratio
IWWG | ≤ 0.25
DFHN | ≤ 0.25
EMKP | ≤ 0.25
QADY | 11.7
QNYE | ≤ 0.25
MKRE | ≤ 0.25
YSKM | ≤ 0.25
VALE | 2.02
APNV | ≤ 0.25
HWCC | ≤ 0.25
KFCP | ≤ 0.25
AGNR | ≤ 0.25
FWAD | ≤ 0.25
KHSN | ≤ 0.25
GHNR | ≤ 0.25
LQYP | ≤ 0.25
NLRH | ≤ 0.25
MDGF | ≤ 0.25
SKHK | ≤ 0.25
HCDL | ≤ 0.25
LSER | ≤ 0.25
INPK | ≤ 0.25
YFGQ | ≤ 0.25
EAAY | ≤ 0.25

Variant | enrichment ratio
QNFH | ≤ 0.25
KFCV | ≤ 0.25
QQED | ≤ 0.25
VHAI | ≤ 0.25
PKAV | ≤ 0.25
GLWS | ≤ 0.25
VKSN | ≤ 0.25
MQCQ | ≤ 0.25
QFDG | ≤ 0.25
WSRE | ≤ 0.25
ELGM | ≤ 0.25
MMDL | ≤ 0.25
FGTT | ≤ 0.25
WIWG | ≤ 0.25
VQML | ≤ 0.25
WDFP | ≤ 0.25
EYEI | ≤ 0.25
GRPA | ≤ 0.25
SVNP | ≤ 0.25
YLYE | ≤ 0.25
FEVF | ≤ 0.25
LEYC | 4.32
HMWW | ≤ 0.25
CNAF | ≤ 0.25

Variant | enrichment ratio
WANI | ≤ 0.25
GALI | 14.1
GKWG | ≤ 0.25
IMEH | ≤ 0.25
WRSF | ≤ 0.25
TLAF | 1.14
ECFK | ≤ 0.25
QFSS | ≤ 0.25
SWHA | ≤ 0.25
IKYI | ≤ 0.25
DWLE | ≤ 0.25
MDYK | ≤ 0.25
QQNY | 2.46
TGSK | ≤ 0.25
CVLV | ≤ 0.25
DTRY | ≤ 0.25
RRKE | ≤ 0.25
ECST | ≤ 0.25
IACN | ≤ 0.25
WNPY | ≤ 0.25
LQSH | ≤ 0.25
YHIH | ≤ 0.25
IDWG | ≤ 0.25
VMHG | ≤ 0.25

Variant | enrichment ratio
LVNK | ≤ 0.25
MSIP | ≤ 0.25
LWQP | ≤ 0.25
RMCM | ≤ 0.25
RMEE | ≤ 0.25
GLLV | 3.8
YHVP | ≤ 0.25
DHGI | ≤ 0.25
RWFV | ≤ 0.25
DFTA | ≤ 0.25
LNAP | ≤ 0.25
QNCG | ≤ 0.25
HEYY | ≤ 0.25
EVNQ | ≤ 0.25
MVNM | ≤ 0.25
WFFR | ≤ 0.25
HLCG | ≤ 0.25
QLGT | ≤ 0.25
HRSN | ≤ 0.25
VSED | ≤ 0.25
NCLV | 1.12
WVLK | ≤ 0.25
MYLG | ≤ 0.25
SPVW | ≤ 0.25

Variant | enrichment ratio
PNEC | ≤ 0.25
PPQA | ≤ 0.25
DYPL | 0.405
VGML | 8.33
SILE | 1.97
GPSV | ≤ 0.25
VSHD | ≤ 0.25
PEGI | ≤ 0.25
QISI | ≤ 0.25
DQRP | ≤ 0.25
LRIA | ≤ 0.25
IRIY | ≤ 0.25
KREA | ≤ 0.25
GCTK | ≤ 0.25
MMWG | ≤ 0.25
FCYT | ≤ 0.25
RAIY | ≤ 0.25
SNED | ≤ 0.25
QLTP | ≤ 0.25
EVKV | ≤ 0.25
HKHE | ≤ 0.25
RFYF | ≤ 0.25
DYTP | ≤ 0.25
YMSN | ≤ 0.25

Variant | enrichment ratio
IDIE | ≤ 0.25
IGDF | ≤ 0.25
CFYF | ≤ 0.25
EELK | ≤ 0.25
GCIM | 24.5
GHRE | ≤ 0.25
WNCQ | ≤ 0.25
WIYW | ≤ 0.25
HALE | ≤ 0.25
HEFY | ≤ 0.25
APCK | ≤ 0.25
WSQA | ≤ 0.25
RSGD | ≤ 0.25
MQLV | 4.79
SWDY | ≤ 0.25
QRTT | ≤ 0.25
PCYC | ≤ 0.25
GQTY | ≤ 0.25
WYRG | ≤ 0.25
QRKH | ≤ 0.25
AGTV | 4.18
WKLY | ≤ 0.25
QTLY | ≤ 0.25
RHQH | ≤ 0.25

Variant | enrichment ratio
RSWC | ≤ 0.25
THWY | ≤ 0.25
IQQR | ≤ 0.25
VPTE | ≤ 0.25
FLIW | ≤ 0.25
QGHN | ≤ 0.25
WSGI | ≤ 0.25
QNAW | ≤ 0.25
NNLQ | ≤ 0.25
QVHH | ≤ 0.25
NNVC | ≤ 0.25
MFGS | ≤ 0.25
FSPA | ≤ 0.25
NLKV | ≤ 0.25
FKFW | ≤ 0.25
DYTI | ≤ 0.25
PPWP | ≤ 0.25
GPQY | ≤ 0.25
NIWN | ≤ 0.25
MRFL | ≤ 0.25
DKPD | ≤ 0.25
HSSQ | ≤ 0.25
AFGS | ≤ 0.25
LYFG | ≤ 0.25

Variant | enrichment ratio
IKGG | ≤ 0.25
LDAG | ≤ 0.25
GTTN | ≤ 0.25
PTSE | ≤ 0.25
NDVH | ≤ 0.25
KTNG | ≤ 0.25
QKFL | 5.14
RPVA | ≤ 0.25
AILQ | 13.6
FKID | ≤ 0.25
VHGL | ≤ 0.25
TYTP | ≤ 0.25
QPSH | ≤ 0.25
HRYH | ≤ 0.25
LPHE | ≤ 0.25
VQSK | ≤ 0.25
LDCR | ≤ 0.25
PFLM | ≤ 0.25
PDHS | ≤ 0.25
PHTQ | ≤ 0.25
ERFT | ≤ 0.25
NRIC | ≤ 0.25
ARFA | ≤ 0.25
NTQP | ≤ 0.25

Variant | enrichment ratio
SCQP | ≤ 0.25
HNQY | ≤ 0.25
WNTY | ≤ 0.25
HIEP | ≤ 0.25
NCCR | ≤ 0.25
ASMY | 8.56
PRIL | ≤ 0.25
SMHA | ≤ 0.25
QLRG | ≤ 0.25
ILRE | ≤ 0.25
YSDQ | ≤ 0.25
RAHL | ≤ 0.25
IKIP | ≤ 0.25
FYMH | ≤ 0.25
YYCS | ≤ 0.25
EPND | ≤ 0.25
QWAT | ≤ 0.25
MWIH | ≤ 0.25
